The values below come from PubChem BioAssay AID1745853 (National Center for Advancing Translational Sciences (NCATS), 2022).

Some of the results follow. The main result of the screen is listed elsewhere. These columns were measured beside it and carry no call.

What all share (test): Primary Screen for Target Class Profiling of Small Molecule Inhibitors of Methyltransferases
The target in experiment [1] is Glycine N-methyltransferase (Homo sapiens) (UniProt Q14749). To be noted: purified enzyme, MTase-Glo SAH luminescence; measured here: GNMT inhibition; at 40 µM; stronger effect = lower value. The gist of the method:
(§1)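 Each enzyme was assayed with SAM and its substrate. SAH formation detected by MTase-Glo luminescence; single-point 40 uM screen[…].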

The target of experiment [2] is Guanidinoacetate N-methyltransferase (Homo sapiens) (UniProt Q14353). The note with it: purified enzyme, MTase-Glo SAH luminescence; measured here: GAMT inhibition; at 40 µM; stronger effect = lower value. The essentials: as §1
The target in experiment [3] is Histamine N-methyltransferase (Homo sapiens) (UniProt P50135). To be noted: purified enzyme, MTase-Glo SAH luminescence; measured here: HNMT inhibition; at 40 µM; stronger effect = lower value. The essentials:
as §1

Experiment [4] addresses Nicotinamide N-methyltransferase (Homo sapiens) (UniProt P40261). To be noted: purified enzyme, MTase-Glo SAH luminescence; measured here: NNMT inhibition; at 40 µM; stronger effect = lower value. The gist of the method: as §1
In experiment [5] the target is Phenylethanolamine N-methyltransferase (Homo sapiens) (UniProt P11086). To be noted: purified enzyme, MTase-Glo SAH luminescence; measured here: PNMT inhibition; at 40 µM; stronger effect = lower value. The gist of the method:
as §1
% is scaled to controls: 0 for no effect and ±100 for the full control effect.

As to `Cc1ccccc1NC(=O)N1Cc2ccccc2-n2cccc2C1c1ccc(F)cc1` (stereo not given), the activity change, negative = inhibition was -0.333% in experiment [1]; 0.347% in experiment [2]; 1.39% in experiment [3]; 3.45% in experiment [4]; 7.06% in experiment [5].
As to `C/C=C(\C)C(=O)O[C@@H]1[C@@H](C)[C@]2(O)C3C=C(C)C(=O)[C@@]3(O)CC(CO)=C[C@H]2C2C(C)(C)[C@@]21OC(=O)C(C)CC` (stereo not given in full), the activity change, negative = inhibition in experiment [1] is 2.89%; in experiment [2] it was 3.3%; in experiment [3], 10.2%; in experiment [4] it was -11.8%; in experiment [5], -5.34%.
On to `COc1ccc(C2c3cccn3-c3ccccc3CN2C(=O)Nc2ccc(OC)c(OC)c2)cc1` (stereo not given), for which the activity change, negative = inhibition amounted to 11.2% in experiment [1]; 3.84% in experiment [2]; 8.33% in experiment [3]; 4.17% in experiment [4]; 8.34% in experiment [5].
Consider `O=C(Nc1ccc(F)cc1)N1Cc2ccccc2-n2cccc2C1c1cc(F)cc(F)c1` (stereo not given), for which the activity change, negative = inhibition in experiment [1] turned out to be 8.46%; in experiment [2], 2.89%; in experiment [3], 1.07%; in experiment [4] it was 3.17%; in experiment [5], 1.85%.
The matching figures for `COC(=O)c1ccc(NC(=O)N2Cc3ccccc3-n3cccc3C2c2ccc(OC)c(OC)c2)cc1` (stereo not given): 4.91%, 0%, -1.79%, -3.78% and 1.38%.
Consider `CCOc1ccc(C2c3cccn3-c3ccccc3CN2C(=O)NCCc2ccccc2)cc1` (stereo not given), for which the activity change, negative = inhibition is -1.5% in experiment [1]; 0% in experiment [2]; -2.21% in experiment [3]; 2.83% in experiment [4]; 4.07% in experiment [5].
Regarding `CSc1ccc(C2c3cccn3-c3ccccc3CN2C(=O)Nc2cc(Cl)ccc2C)cc1` (stereo not given), the activity change, negative = inhibition in experiment [1] was found to be 2.27%; in experiment [2], 1.73%; in experiment [3], 6.15%; in experiment [4], 0.942%; in experiment [5], 5.61%.
Taken in the same sequence, the figures for `CC1c2cccn2-c2ccccc2CN1C(=O)Nc1ccc(F)c(Cl)c1` (stereo not given) were 7.26%, 0%, 3.79%, -0.621% and 2.98%.
On to `CCOC(=O)C1CCC(CNC(=O)N2Cc3ccccc3-n3cccc3C2c2cccs2)CC1` (stereo not given), for which the activity change, negative = inhibition is 3.01% in experiment [1]; 4.4% in experiment [2]; -6.09% in experiment [3]; -13.1% in experiment [4]; -4.94% in experiment [5].
`COc1ccc(NC(=O)N2Cc3ccccc3-n3cccc3C2c2ccccc2Cl)cc1` (stereo not given): the activity change, negative = inhibition in experiment [1] is 9.01%; in experiment [2] it was 1.21%; in experiment [3], 3.05%; in experiment [4] it was 0.748%; in experiment [5], 3.09%.
The matching figures for `C=C(C)[C@@H]1[C@H]2OC(=O)[C@H]1[C@]1(O)C[C@H]3O[C@]34C(=O)O[C@H]2[C@]14C`: 2.96%, 8.82%, 5.57%, -6.6% and 2.92%.
Turning to `CCOCCCNC(=O)N1Cc2ccccc2-n2cccc2C1c1ccc(OC)cc1` (stereo not given), the activity change, negative = inhibition was 3.98% in experiment [1]; 4.48% in experiment [2]; -3.32% in experiment [3]; -3.54% in experiment [4]; -0.299% in experiment [5].
As to `CC[C@@H](C)[C@H]1C(=O)O[C@H](C(C)C)C(=O)N(C)[C@@H](C(C)C)C(=O)O[C@H](C(C)C)C(=O)N(C)[C@@H](C(C)C)C(=O)O[C@H](C(C)C)C(=O)N1C`, the activity change, negative = inhibition in experiment [1] is -1.08%; in experiment [2], -2.29%; in experiment [3] it was 1.15%; in experiment [4], -11.2%; in experiment [5], -0.142%.
With `COCC1OC(=O)c2coc3c2C1(C)C1=C(C3=O)C2CCC(=O)C2(C)CC1O` (stereo not given), the activity change, negative = inhibition is 0% in experiment [1]; 6.54% in experiment [2]; 6.96% in experiment [3]; -5.4% in experiment [4]; 6.1% in experiment [5].
On to `Cc1ccc(NC(=O)N2Cc3ccccc3-n3cccc3C2C)cc1F` (stereo not given), for which the activity change, negative = inhibition in experiment [1] was 12.3%; in experiment [2] it was 4.09%; in experiment [3], 7.41%; in experiment [4], 2.67%; in experiment [5] it was 10.6%.
The matching figures for `Cc1ccc(C)c(NC(=O)N2Cc3ccccc3-n3cccc3C2c2ccc(N(C)C)cc2)c1` (stereo not given): 4.55%, 0%, 0.392%, 1.56% and 0.593%.
`COc1ccc(OC)c(NC(=O)N2Cc3ccccc3-n3cccc3C2c2ccccc2C)c1` (stereo not given): the activity change, negative = inhibition was determined as 10.5% in experiment [1]; 0% in experiment [2]; 6.95% in experiment [3]; 6.28% in experiment [4]; 6.97% in experiment [5].
With `Nc1cc2c(ncn2CCOCP(=O)(O)O)c(=O)[nH]1`, the activity change, negative = inhibition in experiment [1] is -0.124%; in experiment [2] it was 10.6%; in experiment [3], 1.1%; in experiment [4], 1.61%; in experiment [5], 10.4%.
With `CO[C@@H]1[C@H](O)[C@@H](O[C@@H]2C[C@H]3CC[C@@H]4C(CC[C@]5(C)[C@@H](C6=CC(=O)OC6)CC[C@]45O)[C@@]3(C)[C@H](O)C2)O[C@H](C)[C@@H]1O[C@@H]1O[C@H](CO)[C@@H](O)[C@H](O)[C@H]1O` (stereo not given in full), the activity change, negative = inhibition was 5.11% in experiment [1]; 5.73% in experiment [2]; 11.1% in experiment [3]; -6.65% in experiment [4]; 5.68% in experiment [5].
Turning to `COc1ccc(NC(=O)N2Cc3ccccc3-n3cccc3C2c2cc(F)cc(F)c2)cc1OC` (stereo not given), the activity change, negative = inhibition stood at 6.6% in experiment [1]; 1.87% in experiment [2]; 4.95% in experiment [3]; 1.09% in experiment [4]; 1.45% in experiment [5].
For the molecule `NC(=O)c1ccc(-c2cccc3c2CCNC3)s1`, the activity change, negative = inhibition in experiment [1] is -2.16%; in experiment [2], -3.51%; in experiment [3], -43.6%; in experiment [4], -1.66%; in experiment [5], -14.2%.
Taken in the same sequence, the figures for `O=C(Nc1ccc(F)cc1F)N1Cc2ccccc2-n2cccc2C1c1cc(F)cc(F)c1` (stereo not given) were 10.4%, 0%, 4.76%, 5.53% and 7.78%.
On to `COC1CCCC(C)OC(=O)Cc2cc(O)cc(O)c2C(=O)C1` (stereo not given), for which the activity change, negative = inhibition in experiment [1] is -0.48%; in experiment [2] it was -15.2%; in experiment [3], -5.39%; in experiment [4] it was -19.8%; in experiment [5], -1.65%.
In the case of `COC(=O)c1cccc(NC(=O)N2Cc3ccccc3-n3cccc3C2c2cc(F)cc(F)c2)c1` (stereo not given), the activity change, negative = inhibition in experiment [1] is 3%; in experiment [2] it was 4.66%; in experiment [3] it was -1.47%; in experiment [4], -1.84%; in experiment [5], 0.515%.
As to `COc1cc2c(cc1CCc1ccccc1)N(C(=O)C(C)C)CC21CCN(C(C)=O)CC1`, the activity change, negative = inhibition is -9.98% in experiment [1]; -7.74% in experiment [2]; -2.7% in experiment [3]; -17% in experiment [4]; -2.49% in experiment [5].
For the molecule `CCOc1ccc(C2c3cccn3-c3ccccc3CN2C(=O)Nc2ccc(Cl)cc2)cc1` (stereo not given), the activity change, negative = inhibition in experiment [1] was -2.21%; in experiment [2], 4.48%; in experiment [3], -3.16%; in experiment [4] it was -8.68%; in experiment [5] it was -3.78%.
Taken in the same sequence, the figures for `CC(C)(O)[C@H]1O[C@H]2CC[C@@]3(C)[C@@](O)(CC[C@H]4Cc5c([nH]c6ccccc56)[C@@]43C)C2=CC1=O` were -6.63%, -7.36%, 2.46%, -19.7% and -8.38%.
Consider `CC1c2cccn2-c2ccccc2CN1C(=O)Nc1ccccc1Cl` (stereo not given), for which the activity change, negative = inhibition in experiment [1] was 1.12%; in experiment [2] it was 0%; in experiment [3] it was 0.685%; in experiment [4] it was -2.64%; in experiment [5] it was 3.01%.
Turning to `CC(=O)[C@H]1CC[C@H]2[C@@H]3CC[C@H]4C[C@](C)(O)CC[C@]4(C)[C@H]3CC[C@]12C`, the activity change, negative = inhibition in experiment [1] was -2.12%; in experiment [2], 9.06%; in experiment [3] it was 0.274%; in experiment [4], -1.93%; in experiment [5], 10.1%.
